# Patent US20220403048A1, “BINDING MOLECULES TO ARGINASE II [ARG2]” (Cancer Research Technology Limited, priority 2019, published 2022)
# T1: ARG2 (Homo sapiens, UniProt P78540)
# T1 sequence (P78540 23-354): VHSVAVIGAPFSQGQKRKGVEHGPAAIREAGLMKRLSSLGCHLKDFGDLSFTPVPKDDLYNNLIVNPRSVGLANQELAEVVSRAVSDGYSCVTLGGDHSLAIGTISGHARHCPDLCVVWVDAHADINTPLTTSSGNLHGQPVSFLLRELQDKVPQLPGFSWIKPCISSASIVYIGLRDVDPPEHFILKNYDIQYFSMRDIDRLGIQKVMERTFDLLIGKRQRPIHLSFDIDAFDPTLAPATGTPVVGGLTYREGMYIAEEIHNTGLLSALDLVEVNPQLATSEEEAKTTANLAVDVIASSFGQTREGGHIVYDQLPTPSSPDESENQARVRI
# B1: C0020187: anti-ARG2 antibody, parent lead isolation clone, VH SEQ ID NO: 12, VL SEQ ID NO: 17 (antibody, listed as Homo sapiens, V domains shown)
# VH: [about 100 residues not given here]LRADLGLYMDLWGRGTLVTVSS
# VL: QSVLTQPPSVSAAPGQKVTISCSGSSSNIGNHYVSWYQQLPGTAPKLLIYDNSERPSGIPDRFSGSKSGTSATLGITGLQTGDEADYYCGTWDSSLSALVFGGGTKLTVL
# modifications: C0020187
# Legend:
# [1] = target: T1, ARG2; experiment: T cell proliferation assay (BrdU, 72 hours) with exogenous ARG2; type: cell-based; details: In Absence of rhARG2
# Experimental: (§1) This assay served to provide in vitro evidence of functional efficacy for each antibody.
# (§2) Briefly, Leukocyte cones (NHS Blood and Transplant, Watford, UK) underwent Ficoll Plaque (GE, Sweden; Cat: 17-1440-02) gradient separation, PBMC's were extracted and pan T cell population isolated by negative selection using the Human T Cell Enrichment Kit (Stemcell Technologies, France; Cat: 19051) according to the manufacturer's instructions.
# (§3) 40000 cells/well were seeded in complete growth media (RMPI 1640, 5% Human Serum Albumin) into a 96 well clear TC treated microplate (Greiner-Bio One, Germany; Cat: 655180). T Cells were activated by the addition of ImmunoCult CD3/CD28 (Stemcell Technologies, France; Cat: 10971) at a dilution of 1:40 directly into wells and the plate incubated 37° C., 5% CO2 for 45 minutes.
# (§4) To determine EC50's of test antibodies, a dilution series was created in sterile TBS at 8× the final assay concentration was added to the assay plate containing cells. Plate was incubated for 30 minutes at 37° C., 5% CO2.
# (§5) ARG2 was added to relevant wells of the plate at a final concentration of 15 μg/ml. The equivalent volume of ARG2 vehicle and test antibody vehicle was added to relevant control wells. […]
# (§6) Calculated data was expressed as % of control (Equation 3) and graphical plots were constructed using a four parameter fit and EC50's determined using model 205 in XLFit (IDBS, UK). […]
# [2] = target: T1, ARG2; experiment: as above; type: cell-based; parameters: human ARG2 (aa23-354); His10 (C); made in house; host or cells: E. coli BL21 (DE3)
# Experimental: as §1, §2, §3, §4, §5, §6
molecule,measurement,setting,value
B1,EC50,[1],< 0.8 nM
same,Maximum % Proliferation,[1],98%
same,Maximum % Proliferation,"[2]; In Presence of rhARG2, NHLA value at 0.444 mM",59%
same,EC50,"[2]; In Presence of rhARG2, cell without unit",971 nM
